# Source: publication PMC6919601, “Identification of Plasmodium dipeptidyl aminopeptidase allosteric inhibitors by high throughput screening” (PLoS ONE, 2019)
# Where “and” joins values, the source holds several entries; their conditions need not be identical. Equal values may be shown once. Out of some 110,000 compounds screened, about 230 (0.21%) showed an effect of 50% or more. This is one part of the list.
# Molecular target: DPAP1 (Plasmodium falciparum, UniProt Q8IIJ9)
# Test: primary screen, percent inhibition; read by cleavage of a fluorogenic dipeptide substrate; higher = more effect of the substance
# Set-up: species or system P. falciparum D10 trophozoite lysates; single well
# 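Further: 30 min substrate incubation versus DMSO and 10 µM JCP410 controls.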
# DPAP1, sequence (Q8IIJ9 whole entry, looked up): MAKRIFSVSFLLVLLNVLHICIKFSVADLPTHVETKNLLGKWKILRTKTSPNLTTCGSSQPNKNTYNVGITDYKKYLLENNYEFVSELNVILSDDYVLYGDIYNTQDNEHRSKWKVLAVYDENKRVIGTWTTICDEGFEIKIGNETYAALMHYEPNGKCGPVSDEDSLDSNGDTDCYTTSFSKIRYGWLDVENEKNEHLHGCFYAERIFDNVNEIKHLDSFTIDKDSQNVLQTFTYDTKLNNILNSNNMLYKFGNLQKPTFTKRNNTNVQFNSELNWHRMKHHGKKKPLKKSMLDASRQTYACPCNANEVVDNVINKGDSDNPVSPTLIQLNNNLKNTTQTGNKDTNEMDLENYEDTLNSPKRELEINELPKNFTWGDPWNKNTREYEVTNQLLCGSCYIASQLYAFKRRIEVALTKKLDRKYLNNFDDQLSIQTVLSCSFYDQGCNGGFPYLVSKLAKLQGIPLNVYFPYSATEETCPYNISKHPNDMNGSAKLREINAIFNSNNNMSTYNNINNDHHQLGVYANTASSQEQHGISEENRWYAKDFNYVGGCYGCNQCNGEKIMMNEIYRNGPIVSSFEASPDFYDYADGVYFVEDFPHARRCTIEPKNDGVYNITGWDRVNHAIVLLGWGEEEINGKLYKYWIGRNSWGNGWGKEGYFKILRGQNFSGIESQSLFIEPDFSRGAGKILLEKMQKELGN
row,Compound,% Inhibition @ 10 uM
1,Cc1cc(-c2ccc(S(=O)(=O)N3CCCCCC3)s2)on1,-5.12%
2,CC1=C(C(=O)Nc2ccc(C)cn2)C(c2ccc3c(c2)OCO3)C2=C(O)CCCC2=N1 (stereo not shown),-5.79%
3,CCOc1ccccc1NC(=O)C1=C(C)NC(=O)NC1c1ccc(OC)cc1 (stereo not shown),-7.46%
4,CC(C)CN1C(=O)NC(NC(=O)c2cccnc2)(C(F)(F)F)C1=O (stereo not shown),-1.72%
5,Cc1cc(NS(=O)(=O)c2ccc(NS(=O)(=O)c3ccc(Br)cc3)cc2)nc(C)n1,-0.884%
6,CCC(O)c1ccc(OCc2ccc(C(=O)OC)cc2)c(OC)c1 (stereo not shown),0.146%
7,O=C(CN(c1ccc(Br)cc1)S(=O)(=O)c1ccccc1)N1CCCCCC1,9.02%
8,COc1ccc2c3ncn(CCCN4CCCCC4C)c(O)c-3nc2c1 (stereo not shown),-0.0235%
9,O=[N+]([O-])c1cccc(C2=NN(c3nc(-c4ccc(Cl)cc4)cs3)C(c3ccc(F)cc3)C2)c1 (stereo not shown),2.54%
10,O=C(/C=C/c1ccccc1)Nc1cccc(C(F)(F)F)c1,6.09%
11,CC(C)C[C@H](NC(=O)c1ccc(NC(=O)OCCCc2ccccn2)cc1)C(=O)NCC#N,3.66%
12,Cc1noc(NS(=O)(=O)c2ccc(NC(=O)Nc3ccc(Cl)cc3)cc2)c1C,6.82%
13,O=C(CCC(=O)n1ncc2ccc(Cl)cc21)NCCc1ccc(Cl)cc1,8.34%
14,Cc1ccc(/C=C(\NC(=O)c2ccc(C)cc2)C(=O)N2CC3CC(C2)c2cccc(=O)n2C3)cc1 (stereo not shown),0.111%
15,FC(F)(F)c1cccc(N2CCNCC2)c1,3.16%
16,COc1ccc(-c2ccc(C3Nc4ccc5ccccc5c4C4=C3C(=O)CC(C)(C)C4)o2)cc1Cl (stereo not shown),1.29%
17,c1ccc(Cn2c3c(c4ccccc42)CCc2nonc2-3)cc1,3.04%
18,Cc1ccc(-c2nnc3c4cnn(Cc5ccccc5)c4ncn23)cc1,-3.96%
19,CCCN(CCC)C(=O)Cn1c(=O)n(CC(=O)NCc2ccco2)c(=O)c2sccc21,-1.21%
20,Cc1ccc2c(c1)cc1c(=O)n(CC(=O)N3CCCCCC3)nc(C)n12,3.29%
21,COc1cccc(CNC(=O)CN(C)S(=O)(=O)c2c[nH]cn2)c1,3.24%
22,COc1ccc(-c2nc(-c3cccc4ccccc34)c(-c3ccccc3)[nH]2)cc1,3.18% and 3.48%
23,COc1cccc(NC(=O)COc2ccccc2C(C)C)c1,1.64%
24,CCC/N=c1\c(NC(=O)c2ccc(Cl)cc2)c(O)oc2ccccc12,-0.984%
25,O=[N+]([O-])c1cc(C(F)(F)F)ccc1NS(=O)(=O)c1ccc(Cl)cc1,-1.92%
